These are literature values, as cited in PubChem BioAssay AID1259410 (Chemical Carcinogenesis Research Information System (CCRIS), 2018).

For this data set, the system named is rodent tumor promotion studies, tumor incidence. The experiment in a line: CCRIS tumor promotion studies. To be noted: Species: RAT. An excerpt: The CCRIS database contains chemical records with carcinogenicity, mutagenicity, tumor promotion, and tumor inhibition test results. It was developed by the National Cancer Institute (NCI). Data are derived from studies cited in primary journals, current awareness tools, NCI reports, and other sources. Test results have been reviewed by experts in carcinogenesis and mutagenesis.
CCRIS provides historical information from the years 1985 - 2011. It is no longer updated.
This is an archive assay for CCRIS tumor promotion studies.

“Also recorded” adds a separate entry of the source. Some entries of the source have several records that differ or are many. The other results are left out here. An entry can have further records. Results that share an entry do not match, cause unknown; they may come from other doses, times, organisms or constructs than stated.

For the molecule `Cc1cc(C(C)(C)C)c(O)c(C(C)(C)C)c1`, the outcome is “bladder: carcinoma and bladder: papilloma” (Carcinogen: 2-ACETYLAMINOFLUORENE, 53-96-3, Doses [Carcinogen]: 50 PPM IN DIET FOR 76 WK, Doses [Promoter]: 0, 100, 300, 1000, 3000, 6000 PPM IN DIET CONCURRENTLY WITH CARCINOGEN FOR STUDY DURATION (STUDY DURATION: 76 WK), 100, 300, 1000, 3000, Route [Carcinogen]: ORAL, Route [Promoter]: ORAL, Strain/Sex: F344/MALE); “ear duct: adenoma/carcinoma and bladder: carcinoma, papilloma” (Carcinogen: 3,2'-DIMETHYL-4-AMINOBIPHENYL, 13394-86-0, Doses [Carcinogen]: 50 MG/KG IN CORN OIL 1/WK FOR 10 WK, Doses [Promoter]: 0, 1% ADMINISTERED TO 55 WK OLD RATS IN DIET FOR 11 WK BEGINNING 1 WK PRIOR TO CARCINOGEN (STUDY DURATION: 55 WK), Route [Carcinogen]: SUBCUTANEOUS, Route [Promoter]: ORAL, Strain/Sex: F344/MALE).
Turning to `CCNc1nc(Cl)nc(NC(C)C)n1`, where the note is “Carcinogen: 7,12-DIMETHYLBENZ[A]ANTHRACENE [57-97-6], Doses [Carcinogen]: 50 MG/KG BW ONCE AT 7 WK AGE, Doses [Promoter]: 0, 5, 50, 500 PPM IN DIET FOR 34 WK TO OVARIECTOMIZED TUMOR BEARING RATS FOR 19 WK AFTER CARCINOGEN (STUDY DURATION: 53, 5, 50, 500 PPM IN DIET FOR 34 WK TO OVARIECTOMIZED TUMOR BEARING RATS FOR 19 WK AFTER CARCINOGEN (STUDY DURATION: 53, Route [Carcinogen]: INTRAGASTRIC, Route [Promoter]: DIET (ORAL), Strain/Sex: SPRAGUE-DAWLEY/FEMALE”, the outcome is reported as “mammary tumor, not significant; also recorded: mammary: tumor; incidence increased at 500 ppm p<0.05; volume of tumor increased”.
